Measurements reported in paper PMC7819943, “Rice protein-binding microarrays: a tool to detect cis-acting elements near promoter regions in rice”.
Some of the results follow.

molecular target: T1, OsWOX13 (Oryza sativa, UniProt Q5QMM3 1-267); experiment: protein-binding microarray (RPBM); PBS, 2% BSA, 51.3 ng/ul salmon testes DNA, 50 uM zinc acetate, 200 nM TF, 25 C, 1 h; high values mean tight binding; conditions: protein: recombinant; tags: N-terminal polyhistidine and DsRed monomer fusion (pET32a); label: CyDye5-dUTP incorporated in the synthesized complementary strand; 3' TTTTT single-stranded linker to array surface; dsDNA, one strand shown
T1 sequence: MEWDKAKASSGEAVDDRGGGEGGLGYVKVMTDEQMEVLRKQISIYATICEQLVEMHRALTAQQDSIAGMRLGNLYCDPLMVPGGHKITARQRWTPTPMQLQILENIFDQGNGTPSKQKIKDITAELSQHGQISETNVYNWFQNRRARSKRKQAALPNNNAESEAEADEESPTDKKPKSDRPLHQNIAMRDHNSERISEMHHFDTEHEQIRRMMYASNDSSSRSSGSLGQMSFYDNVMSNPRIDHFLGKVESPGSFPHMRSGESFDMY
Procedure, shortened: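 Transcription factors, each fused N-terminally to a polyhistidine tag and DsRed, were expressed in E. coli BL21-CodonPlus and purified on Ni–NTA. A custom Agilent array was made double-stranded by primer extension with Cy5-dUTP and blocked with 2% BSA. It was incubated with 200 nM protein in PBS, 2% BSA, salmon testes DNA and 50 µM zinc acetate at 25 °C for 1 h, then washed. The binding signal is per-feature fluorescence intensity (arbitrary units) read on an Axon 4000B scanner.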

Row | Sequence | binding signal
1 | AATTGATTTACAATACTTCCTCCGTTTCACAATATAAGTGCGGAGTCACCTAGTGCAG | 24700 fluorescence intensity (a.u.)
2 | TAATTAATCGATGATTAGTCTATGTAATGCTACAGTAAACCGGAGTCACCTAGTGCAG | 21400 fluorescence intensity (a.u.)
3 | ATACGATTATATTAATCTCTCTAAACGTCGTGGGAGTGCTCGGAGTCACCTAGTGCAG | 3290 fluorescence intensity (a.u.)
4 | GTTTGGGATGTCGCGGGGATTTAGGGGCGGTGGGTGGTTTCGGAGTCACCTAGTGCAG | 10900 fluorescence intensity (a.u.)
5 | CAGCTTAAATAAATTGATAAACATGAATTAACTCATGCTTCGGAGTCACCTAGTGCAG | 35800 fluorescence intensity (a.u.)
6 | CGGAGAAAATAGACAAGTTAAGAATCAACATGGAAAATGCCGGAGTCACCTAGTGCAG | 3420 fluorescence intensity (a.u.)
7 | ATCCATGTGATTTTGTCTAACTTGGATCATAATAGATAGACGGAGTCACCTAGTGCAG | 5830 fluorescence intensity (a.u.)
8 | TTGATTTTCAATCTAATAAACTTATTTTACTTTCTTTCTTCGGAGTCACCTAGTGCAG | 7540 fluorescence intensity (a.u.)
9 | TCCCTGACAGGTGGGCCACCTTTGGGCTTTCCCGTGGGCGCGGAGTCACCTAGTGCAG | 6150 fluorescence intensity (a.u.)
10 | CTTTTGTCCTTTATGATTGGTCTATTGAGATGTCTGGGTCCGGAGTCACCTAGTGCAG | 10900 fluorescence intensity (a.u.)
11 | TTTTAATTGAAATGCCACCTAAGCGCCACATCAACACCACCGGAGTCACCTAGTGCAG | 35700 fluorescence intensity (a.u.)
12 | CCAAACCCACCTCGCTAATTAGGGTTCTTCTTCCTCCTCCCGGAGTCACCTAGTGCAG | 4890 fluorescence intensity (a.u.)
13 | TTTATTTGATTTATGCAATCACATGTGAAATGTTACTGCACGGAGTCACCTAGTGCAG | 26400 fluorescence intensity (a.u.)
14 | TTCTTGAATGATTTGCTAATTGCTACATGTATCCTCTTTCCGGAGTCACCTAGTGCAG | 20200 fluorescence intensity (a.u.)
15 | AGGGGAGTTGATTACAGGGAGTTACAGGGTTCCAAGCTTTCGGAGTCACCTAGTGCAG | 6890 fluorescence intensity (a.u.)
16 | TTTACTCAATTGAGGTTAATTAATTGCTAATGATAGTAATCGGAGTCACCTAGTGCAG | 20900 fluorescence intensity (a.u.)
17 | TCCTAATCATTATAATTCCAAACTAAGTTCGCTTTGCCCACGGAGTCACCTAGTGCAG | 15800 fluorescence intensity (a.u.)
18 | GTTCCTTCATTTTAGACGTTCAATCAACTTTTGAATTCTACGGAGTCACCTAGTGCAG | 4720 fluorescence intensity (a.u.)
19 | ACTCACACACAGTAATTAACAGGGATATTGGGATCACAAGCGGAGTCACCTAGTGCAG | 7640 fluorescence intensity (a.u.)
20 | ATAATTATACGAGTATACAAATGACGAATTAAGTATTTGTCGGAGTCACCTAGTGCAG | 3660 fluorescence intensity (a.u.)
21 | TAAAAGACAAATTTAATTAAAACAGTTTCCTAAGACATTCCGGAGTCACCTAGTGCAG | 5710 fluorescence intensity (a.u.)

Row | Sequence | binding signal
22 | CTGTTATGATTCTAATTTTATAAAATTCGAGAGACATGGTCGGAGTCACCTAGTGCAG | 6330 fluorescence intensity (a.u.)
23 | ATGATGATGATCCTGATCCTGATCTTCCTCCTCGATCGACCGGAGTCACCTAGTGCAG | 3400 fluorescence intensity (a.u.)
24 | TTCTACATTCAATCAATCATGCACAGGAGTAGGGTATTACCGGAGTCACCTAGTGCAG | 16400 fluorescence intensity (a.u.)
25 | CCCTCCAATCCTACATGTTGATAGATGTAATCCCTACCGTCGGAGTCACCTAGTGCAG | 10800 fluorescence intensity (a.u.)
26 | CGCCCACAAATTGGACCGCATCTTCTCAAACTCTGCATTGCGGAGTCACCTAGTGCAG | 12100 fluorescence intensity (a.u.)
27 | TCAAAATTGAAATAATAACTAACCAAGTGACAGAAATATTCGGAGTCACCTAGTGCAG | 4280 fluorescence intensity (a.u.)
28 | TCATAATTTATGTTAATACAACATTTTGAAGTTCTGATTGCGGAGTCACCTAGTGCAG | 17400 fluorescence intensity (a.u.)
29 | ATTAAATGGAATTACTGATAGATGAGGTGTGCTGATAGAACGGAGTCACCTAGTGCAG | 26200 fluorescence intensity (a.u.)
30 | ATTGACTGGCATTCTTGGTGTTTCGTGGTCAGGAGTACGACGGAGTCACCTAGTGCAG | 21100 fluorescence intensity (a.u.)
31 | GGCTCAATTAGGAAATTACCCTCGCCATTTTGACGTAGTGCGGAGTCACCTAGTGCAG | 14300 fluorescence intensity (a.u.)
32 | CTTGACTGCACATATGCAAAGATATTTTCTACAGAAGTATCGGAGTCACCTAGTGCAG | 6610 fluorescence intensity (a.u.)
33 | ATGTTAAATCACTGTCATTGGACACAAGCGGATCGAGCCGCGGAGTCACCTAGTGCAG | 4060 fluorescence intensity (a.u.)
34 | GCACACTAATAGATGCCATTCTTTTCTCTAATTATGCTCTCGGAGTCACCTAGTGCAG | 8160 fluorescence intensity (a.u.)
35 | CTGATTTGTTCTGTCTTGCTAAGATTAGGGACGATGATTTCGGAGTCACCTAGTGCAG | 14300 fluorescence intensity (a.u.)
36 | ACTTTGATAGAAGTCAAATTATTTCAAGTTTAACTAAGTTCGGAGTCACCTAGTGCAG | 23500 fluorescence intensity (a.u.)
37 | AGGGTAATTTATCCGGTTTCAATAGTTTAGAGTATCAAATCGGAGTCACCTAGTGCAG | 5120 fluorescence intensity (a.u.)
38 | GATCCAAACTCTTAACCTCCAATCAAATCTAACTCGCTAACGGAGTCACCTAGTGCAG | 4100 fluorescence intensity (a.u.)
39 | AAATCCCCTCTGATTAGAAAGAGAGAGTGAAAGCGAGCCACGGAGTCACCTAGTGCAG | 3200 fluorescence intensity (a.u.)
40 | TGTGCTAATTTCAGTCTGATGTGGTCCACAGGCCAACACCCGGAGTCACCTAGTGCAG | 13000 fluorescence intensity (a.u.)
41 | AGGCGATAATCCTAATTTTGAATGGAAACACTGCAGGCGACGGAGTCACCTAGTGCAG | 5040 fluorescence intensity (a.u.)
42 | CACTATAATTAAACAAACAAACTTCAAATTCAAATTCAGCCGGAGTCACCTAGTGCAG | 16800 fluorescence intensity (a.u.)
